# Experimental data published in the supplement of paper PMC8728848.
# Some of the results follow.
# Tests used:
# Assay in all cases: glycan array binding signal (z-score within array); higher = stronger binding
# Settings in all cases: glycan notation: IUPAC condensed, linker removed
# Gal6S(b1-4)Glc6S = target: Gal6S(b1-4)Glc6S
# Summary of the method: (§1)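 Glycan array data came from 3228 arrays in the Consortium for Functional Glycomics database, and only arrays with an available protein sequence were kept. Glycan names were put into IUPAC-condensed notation, and columns mapping to the same glycan were averaged. The binding signal is a within-array Z-score, averaged across arrays of one protein sequence run at different concentrations or buffers and across linkers. A negative Z-score can be read as non-binding.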
# Gal6S(b1-4)GlcNAc = target: Gal6S(b1-4)GlcNAc
# Summary of the method: as §1
# GalNAc(a1-3)Gal = target: GalNAc(a1-3)Gal
# Summary of the method: as §1
# GalNAc(a1-3)GalNAc = target: GalNAc(a1-3)GalNAc
# Summary of the method: as §1
# [1] = target: GalNAc(b1-3)Gal(a1-4)Gal(b1-4)GlcNAc
# Summary of the method: as §1
# GalNAc(b1-4)GlcNAc = target: GalNAc(b1-4)GlcNAc
# Summary of the method: as §1
# Glc(a1-4)Glc = target: Glc(a1-4)Glc
# Summary of the method: as §1
# Glc(a1-6)Glc(a1-6)Glc = target: Glc(a1-6)Glc(a1-6)Glc
# Summary of the method: as §1
# Glc(b1-4)Glc = target: Glc(b1-4)Glc
# Summary of the method: as §1
# Glc(b1-6)Glc = target: Glc(b1-6)Glc
# Summary of the method: as §1
# GlcA(b1-3)Gal = target: GlcA(b1-3)Gal
# Summary of the method: as §1
# GlcA(b1-6)Gal = target: GlcA(b1-6)Gal
# Summary of the method: as §1
# [2] = target: GlcNAc(a1-3)Gal(b1-4)GlcNAc
# Summary of the method: as §1
# [3] = target: GlcNAc(a1-6)Gal(b1-4)GlcNAc
# Summary of the method: as §1
# [4] = target: GlcNAc(b1-2)Gal(b1-3)GlcNAc
# Summary of the method: as §1
# [5] = target: GlcNAc(b1-2)Man(a1-3)[GlcNAc(b1-2)Man(a1-6)]Man(b1-4)GlcNAc(b1-4)GlcNAc
# Summary of the method: as §1
# GlcNAc(b1-3)Gal = target: GlcNAc(b1-3)Gal
# Summary of the method: as §1
# [6] = target: GlcNAc(b1-3)Gal(b1-3)GalNAc
# Summary of the method: as §1
# GlcNAc(b1-3)Gal(b1-4)Glc = target: GlcNAc(b1-3)Gal(b1-4)Glc
# Summary of the method: as §1
# [7] = target: GlcNAc(b1-3)Gal(b1-4)GlcNAc
# Summary of the method: as §1
# [8] = target: GlcNAc(b1-3)Gal(b1-4)GlcNAc(b1-3)Gal(b1-4)GlcNAc
# Summary of the method: as §1
# GlcNAc(b1-3)GalNAc = target: GlcNAc(b1-3)GalNAc
# Summary of the method: as §1
# [9] = target: GlcNAc(b1-3)[GlcNAc(b1-4)][GlcNAc(b1-6)]GlcNAc
# Summary of the method: as §1
# [10] = target: GlcNAc(b1-3)[GlcNAc(b1-6)]Gal(b1-4)GlcNAc
# Summary of the method: as §1
# [11] = target: GlcNAc(b1-3)[GlcNAc(b1-6)]GlcNAc
# Summary of the method: as §1
# [12] = target: GlcNAc(b1-4)Gal(b1-4)GlcNAc
# Summary of the method: as §1
# [13] = target: GlcNAc(b1-4)GlcNAc(b1-4)GlcNAc
# Summary of the method: as §1
# [14] = target: GlcNAc(b1-4)GlcNAc(b1-4)GlcNAc(b1-4)GlcNAc(b1-4)GlcNAc
# Summary of the method: as §1
# [15] = target: GlcNAc(b1-4)GlcNAc(b1-4)GlcNAc(b1-4)GlcNAc(b1-4)GlcNAc(b1-4)GlcNAc
# Summary of the method: as §1
# [16] = target: GlcNAc(b1-4)[GlcNAc(b1-6)]GalNAc
# Summary of the method: as §1
# [17] = target: GlcNAc(b1-6)Gal(b1-4)GlcNAc
# Summary of the method: as §1
# GlcNAc(b1-6)GalNAc = target: GlcNAc(b1-6)GalNAc
# Summary of the method: as §1
# Kdn(a2-3)Gal(b1-3)GlcNAc = target: Kdn(a2-3)Gal(b1-3)GlcNAc
# Summary of the method: as §1
# Kdn(a2-3)Gal(b1-4)GlcNAc = target: Kdn(a2-3)Gal(b1-4)GlcNAc
# Summary of the method: as §1
# [18] = target: Man(a1-2)Man(a1-2)Man(a1-3)Man
# Summary of the method: as §1
# [19] = target: Man(a1-2)Man(a1-2)Man(a1-3)[Man(a1-2)Man(a1-3)[Man(a1-2)Man(a1-6)]Man(a1-6)]Man(b1-4)GlcNAc(b1-4)GlcNAc
# Summary of the method: as §1
# [20] = target: Man(a1-2)Man(a1-2)Man(a1-3)[Man(a1-2)Man(a1-6)[Man(a1-3)]Man(a1-6)]Man(b1-4)GlcNAc(b1-4)GlcNAc
# Summary of the method: as §1
binder,measurement,setting,value
"IDGF2 (Drosophila melanogaster), Q9V3D4 (protein) MKAWIWFTFVACLFAASTEAASNLVCYYDSSSYTREGLGKLLNPDLEIALQFCSHLVYGYAGLRGENLQAYSMNENLDIYKHQFSEVTSLKRKYPHLKVLLSVGGDHDIDPDHPNKYIDLLEGEKVRQIGFIRSAYDLVKTYGFDGLDLAYQFPKNKPRKVHGDLGLAWKSIKKLFTGDFIVDPHAALHKEQFTALVRDVKDSLRADGFLLSLTVLPNVNSTWYFDIPALNGLVDFVNLATFDFLTPARNPEEADYSAPIYHPDGSKDRLAHLNADFQVEYWLSQGFPSNKINLGVATYGNAWKLTKDSGLEGVPVVPETSGPAPEGFQSQKPGLLSYAEICGKLSNPQNQFLKGNESPLRRVSDPTKRFGGIAYRPVDGQITEGIWVSYDDPDSASNKAAYARVKNLGGVALFDLSYDDFRGQCSGDKYPILRAIKYRLHHHHHH",glycan array binding signal (z-score),Gal6S(b1-4)Glc6S,-0.146
same,glycan array binding signal (z-score),Gal6S(b1-4)GlcNAc,0.196
same,glycan array binding signal (z-score),GalNAc(a1-3)Gal,-0.259
same,glycan array binding signal (z-score),GalNAc(a1-3)GalNAc,-0.398
same,glycan array binding signal (z-score),[1],-0.362
same,glycan array binding signal (z-score),GalNAc(b1-4)GlcNAc,-0.336
same,glycan array binding signal (z-score),Glc(a1-4)Glc,-0.125
same,glycan array binding signal (z-score),Glc(a1-6)Glc(a1-6)Glc,-0.349
same,glycan array binding signal (z-score),Glc(b1-4)Glc,0.145
same,glycan array binding signal (z-score),Glc(b1-6)Glc,-0.388
same,glycan array binding signal (z-score),GlcA(b1-3)Gal,-0.559
same,glycan array binding signal (z-score),GlcA(b1-6)Gal,-0.525
same,glycan array binding signal (z-score),[2],-0.102
same,glycan array binding signal (z-score),[3],0.07
same,glycan array binding signal (z-score),[4],0.063
same,glycan array binding signal (z-score),[5],-0.223
same,glycan array binding signal (z-score),GlcNAc(b1-3)Gal,0.066
same,glycan array binding signal (z-score),[6],-0.24
same,glycan array binding signal (z-score),GlcNAc(b1-3)Gal(b1-4)Glc,-0.024
same,glycan array binding signal (z-score),[7],-0.38
same,glycan array binding signal (z-score),[8],-0.305
same,glycan array binding signal (z-score),GlcNAc(b1-3)GalNAc,0.032
same,glycan array binding signal (z-score),[9],-0.235
same,glycan array binding signal (z-score),[10],-0.522
same,glycan array binding signal (z-score),[11],-0.356
same,glycan array binding signal (z-score),[12],-0.376
same,glycan array binding signal (z-score),[13],-0.299
same,glycan array binding signal (z-score),[14],-0.511
same,glycan array binding signal (z-score),[15],-0.118
same,glycan array binding signal (z-score),[16],-0.349
same,glycan array binding signal (z-score),[17],-0.237
same,glycan array binding signal (z-score),GlcNAc(b1-6)GalNAc,-0.197
same,glycan array binding signal (z-score),Kdn(a2-3)Gal(b1-3)GlcNAc,-0.44
same,glycan array binding signal (z-score),Kdn(a2-3)Gal(b1-4)GlcNAc,-0.485
same,glycan array binding signal (z-score),[18],-0.49
same,glycan array binding signal (z-score),[19],-0.586
same,glycan array binding signal (z-score),[20],-0.038
